Source: PMC9804489, “Phase 1/1b Studies of UCB0599, an Oral Inhibitor of α‐Synuclein Misfolding, Including a Randomized Study in Parkinson's Disease” (Movement Disorders, 2022)

Legend:
[1] = UP0078 phase 1 study: effect of food and ITZ on single-dose PK of UCB0599; assay type: in vivo, human
Description: Statistical evaluations for all three studies were performed using SAS version 9.4 (SAS, Cary, NC, USA), and PK data were analyzed using Phoenix WinNonlin software (Certara, Princeton, NJ, USA). Continuous variables were summarized with number of participants, mean, standard deviation, median, minimum and maximum, and confidence intervals (CI) for the mean. Categorical variables were summarized with frequency counts and percentages.

[2] = UCB0599 fraction unbound measured ex-vivo in plasma; assay type: in vitro ADME; conditions: human; measured ex‐vivo in plasma, constant between dose groups
Text: (§1) A linear, time‐independent, PK profile was observed, and the PK of multiple doses of UCB0599 were predictable from single‐dose exposures.

[3] = PK across all three phase 1/1b studies; assay type: in vivo; conditions: human, plasma, oral; UP0030, UP0078, UP0077; read-out: Apparent elimination half‐life, range across all three studies
Text: as §1

[4] = parameters: method as in ref 11 = [11]; 11 Maguire R , Mercier J , Colson A , et al. OPR‐093: assessment of brain concentration of UCB0599, in development for Parkinson's disease (PD), in humans using PET . Eur J Neurol 2021; 28 ( S1 ): 61; conditions: HPs, after 360 mg UCB0599; cited from earlier work
[5] = UP0077 phase 1b study: safety and tolerability in participants with PD
[6] = UP0078 phase 1 food/ITZ study: safety and tolerability in healthy participants; conditions: UP0078, UCB0599 N=22
[7] = UP0030 phase 1 study: cerebrospinal fluid (CSF) concentration ~2 hours after administration

## CCCC[C@H](Cc1c[nH]c2ccccc12)NC(=O)c1cnc(N2CCN(C)CC2)s1 [UCB0599]
[1]; 180 mg single dose, ITZ 200 mg once daily, 90% CI 262.1–296.3
  GeoLSM ratio UCB0599 + ITZ versus UCB0599 fasted for AUC(0–t): 278.7%
[1]; 180 mg single dose, 90% CI 90.79–120.2
  GeoLSM fed/fasted ratio for C max: 104.5%
[1]; 180 mg single dose, 90% CI 104.4–113.7
  GeoLSM fed/fasted ratio for AUC(0–t): 108.9%
[1]; 200 mg of ITZ (strong CYP3A4 inhibitor)
  Increase in UCB0599 plasma exposure on co‐administration of ITZ: more than twofold
[1]; Hodges–Lehmann estimate, 90% CI 0–1.0
  Median difference in t max between UCB0599 + ITZ and UCB0599 fasted: 0.5 h
[1]; Hodges–Lehmann estimate, 90% CI 1.0–2.0
  Median difference in t max between fed and fasted: 1.5 h
[1]; from ITZ interaction
  CYP3A4 substrate classification: moderately sensitive CYP3A4 substrate
[1]; standard high‐fat, high‐calorie meal, 180 mg
  Food effect on UCB0599 absorption: no meaningful food effect
[2]
  fraction unbound: ~0.011
[3]
  half-life: 9.3 to 13.1 h
[4]
  Brain penetration (white and gray matter regions), PET: good brain penetration
[5]; UP0077, UCB0599 360 mg/day group (kidney injury)
  Serious TEAEs: 1 n
[5]; UP0077, all UCB0599 N=21
  Deaths: 0 n (%) […]
[5]; UP0077, incl. QTcF and plasma creatinine
  Treatment‐related patterns for laboratory findings, vital signs, or ECG findings: no consistent or clinically relevant treatment‐related patterns
[6]
  Deaths: 0 n (%) […]
  TEAEs of special interest: 0 n (%) […]
[7]; MAD 180 mg/day, day 14
  Concentration in the CSF, GeoMean: 1260 pg/mL
[7]; MAD 180 mg/day, day 21
  Concentration in the CSF, GeoMean: 4880 pg/mL
[7]; SAD 90 mg, ~2 hours post-dose
  Concentration in the CSF, GeoMean: 2040 pg/mL
[7]; SAD 450 mg, ~2 hours post-dose
  Concentration in the CSF, GeoMean: 11,800 pg/mL
